# “And” between values parts separate entries of the source, which are not always exact repeats. Equal values may be shown once. Where a name gives a salt, the structure may show the parent alone. About 50 (3%) of roughly 1,800 compounds showed activity. This is one part of the list.
# Tested on: mouse p16Ink4a+/- lung fibroblasts (INKBRITE, bleomycin-injured)
# Assay: percentage of GFP+ (p16Ink4a+) fibroblasts among all cells in well; higher = less depletion of p16Ink4a+ cells, active = 20 or less
# Details: 1 µM; 3 days
# 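Note: fibroblasts sorted 14 days after bleomycin, GFP+ and GFP− mixed 1:1 in 384-well plates (GFP− as in-well control), imaged after Hoechst and NucView530 staining, reference wells lacked compound.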
row,SMILES,percentage of GFP+
1,NC(=O)c1noc([C@H](CCCC2CCCCC2)CC(=O)NO)n1,inactive: 47%
2,Cc1cccc(CN2CCN(C(c3ccccc3)c3ccc(Cl)cc3)CC2)c1 (stereo unspecified) [Meclizine],inactive: 49.2%
3,CC(C)c1nc(CN(C)C(=O)N[C@@H](CCN2CCOCC2)C(=O)N[C@H](CC[C@H](Cc2ccccc2)NC(=O)OCc2cncs2)Cc2ccccc2)cs1 [Cobicistat],inactive: 43.4%
4,CCN(CC)C(=S)SSC(=S)N(CC)CC [Disulfiram],inactive: 39%
5,CN(C)C(=O)[C@H](O)[C@H](Cc1ccccc1)NC(=O)c1cc2cc(Cl)ccc2[nH]1,inactive: 54.4%
6,CCCCOc1ccc(C(=O)CCN2CCCCC2)cc1 [Dyclonine],inactive: 47.1%
7,"CCCN1CCCC[C@H]1C(=O)Nc1c(C)cccc1C [Ropivacaine, Ropivacaine Hydrochloride]",inactive: 46%
8,O=C(Nc1ccccc1Br)N[C@@H]1CCN(c2ccc(C(F)(F)F)cn2)C1,inactive: 39.1%
9,CCOC(=O)N1CCC(=C2c3ccc(Cl)cc3CCc3cccnc32)CC1 [Loratadine],inactive: 54.5%
10,COc1nc(N)nc2c1ncn2[C@@H]1O[C@H](CO)[C@@H](O)[C@@H]1O [Nelarabine],inactive: 36.4%
11,CCOc1nc2cccc(C(=O)O)c2n1Cc1ccc(-c2ccccc2-c2nn[nH]n2)cc1 [Candesartan],inactive: 42.4%
12,O=C(c1cccc(Cl)c1F)N1CCN(Cc2cccc(Nc3nccs3)n2)CC1,inactive: 31.9%
13,N#CC(=C(/N)Sc1ccccc1N)/C(C#N)=C(\N)Sc1ccccc1N,inactive: 45.5%
14,Cn1nc(C(C)(C)C)cc1C(=O)N[C@@H](Cc1cccc(Cl)c1)C(=O)NCC#N [Cathepsin Inhibitor 1],inactive: 52.1%
15,CC(C)(CO)c1cc2cc(NC(=O)C3(c4ccc5c(c4)OC(F)(F)O5)CC3)c(F)cc2n1C[C@@H](O)CO,inactive: 33%
16,COC1=CC(=O)C[C@@H](C)[C@]12Oc1c(Cl)c(OC)cc(OC)c1C2=O [Griseofulvin],inactive: 40.1%
17,Cc1cn(C2C=CC(CO)O2)c(=O)[nH]c1=O (stereo unspecified) [Stavudine],inactive: 37.8%
18,CN1C2CCCC1CC(NC(=O)c1nn(C)c3ccccc13)C2 (stereo unspecified) [Granisetron Hydrochloride],inactive: 39.2%
19,Cc1cccc(C)c1OCC(=O)N[C@@H](Cc1ccccc1)[C@@H](O)C[C@H](Cc1ccccc1)NC(=O)[C@H](C(C)C)N1CCCNC1=O [Lopinavir],inactive: 30.6%
20,CC1=C(/C=C/C(C)=C/C=C/C(C)=C/C=C/C=C(C)/C=C/C=C(C)/C=C/C2=C(C)CCCC2(C)C)C(C)(C)CCC1 [Beta-carotene],inactive: 49.2%
21,CCS(=O)(=O)CCn1c([N+](=O)[O-])cnc1C [Tinidazole],inactive: 45.9%
22,CC[C@@H]1C(=O)OC[C@@H]1Cc1cncn1C [Pilocarpine],inactive: 46.3%

row,SMILES,percentage of GFP+
1,CC(C)NCC(O)c1ccc(O)c(O)c1 (stereo unspecified) [Isoprenaline],inactive: 40.9%
2,CC[C@H]1OC(=O)C[C@@H](O)[C@H](C)[C@@H](O[C@@H]2O[C@H](C)[C@@H](O[C@H]3C[C@@](C)(O)[C@@H](O)[C@H](C)O3)[C@H](N(C)C)[C@H]2O)[C@@H](CC=O)C[C@@H](C)C(=O)/C=C/C(C)=C/[C@@H]1CO[C@@H]1O[C@H](C)[C@@H](O)[C@@H](OC)[C@H]1OC [Tylosin Tartrate],inactive: 52.1%
3,OCC(O)CN1CCN(c2ccccc2)CC1 (stereo unspecified) [Dropropizine],inactive: 51.5%
4,CNC(=O)CN1CCC(Oc2cc3c(Nc4cccc(Cl)c4F)ncnc3cc2OC)CC1 [Sapitinib],inactive: 47.4%
5,CC1(C)CC(=O)c2c(C(F)(F)F)nn(-c3ccc(C(N)=O)c(N[C@H]4CC[C@H](O)CC4)c3)c2C1,active: 6.92%
6,"CC[C@H](CO)Nc1nc(NCc2ccccc2)c2ncn(C(C)C)c2n1 [Roscovitine, Seliciclib]",inactive: 42%
7,CCCS(=O)(=O)Nc1ccc(F)c(C(=O)c2c[nH]c3ncc(-c4ccc(Cl)cc4)cc23)c1F [Vemurafenib],inactive: 42.6%
8,Clc1ccc(C(Cn2ccnc2)OCc2c(Cl)cccc2Cl)c(Cl)c1 (stereo unspecified) [Isoconazole],inactive: 32.3%
9,Clc1ccccc1CN1CCc2sccc2C1 [Ticlopidine],inactive: 43.4%
10,CO[C@H]1/C=C\C=C(/C)C(=O)NC2=CC(=O)/C(=N\CCN(C)C)C(=C2O)C[C@@H](C)C[C@H](OC)[C@H](O)[C@@H](C)/C=C(\C)[C@@H]1OC(N)=O [Alvespimycin],active: 12.4%
11,CC(=O)OCC(=O)[C@@]12N=C(C)O[C@@H]1C[C@H]1[C@@H]3CCC4=CC(=O)C=C[C@]4(C)[C@H]3[C@@H](O)C[C@@]12C [Deflazacort],inactive: 31.1%
12,CC(COc1ccccc1)N(CCCl)Cc1ccccc1 (stereo unspecified) [Phenoxybenzamine],inactive: 37.6%
13,O=C(Nc1c(Cl)cncc1Cl)c1ccc(OC(F)F)c(OCC2CC2)c1 [Roflumilast],inactive: 44.9%
14,c1cncc(CN2CCC(n3ncc4c(N5CCOCC5)nc(-c5ccc6[nH]ccc6c5)nc43)CC2)c1,inactive: 28.6%
15,COc1cc2ncnc(Nc3ccc(F)c(Cl)c3)c2cc1OCCCN1CCOCC1 [Gefitinib],inactive: 41.6%
16,OCc1ccc(O[C@@H]2O[C@H](CO)[C@@H](O)[C@H](O)[C@H]2O)cc1 [Gastrodin],inactive: 36.5%
17,"C=C1/C(=C\C=C2/CCC[C@]3(C)[C@@H]([C@H](C)CCCC(C)(C)O)CC[C@@H]23)C[C@@H](O)C[C@@H]1O [Calcitriol, DN-101]",inactive: 22.2%
18,CCOC(=O)N1c2ccc(C(F)(F)F)cc2[C@@H](N(Cc2cc(C(F)(F)F)cc(C(F)(F)F)c2)C(=O)OC)C[C@H]1CC [Torcetrapib],inactive: 49.4%
19,CC[C@H]1OC(=O)[C@H](C)[C@@H](O[C@H]2C[C@@](C)(OC)[C@@H](O)[C@H](C)O2)[C@H](C)[C@@H](O[C@H]2O[C@H](C)C[C@H](N(C)C)[C@H]2O)[C@](C)(O)C[C@@H](C)C(=O)[C@H](C)[C@@H](O)[C@]1(C)O [Erythromycin],inactive: 42%
20,O=C(Nc1cccnc1)N1CCC(Cc2cccc(Oc3ccc(C(F)(F)F)cn3)c2)CC1,inactive: 52%
21,Oc1ccnc(S)n1 [2-thiouracil],inactive: 48.2%
22,Cc1cc(Cl)ccc1OCCCC(=O)NO [Droxinostat],inactive: 45.1%

row,SMILES,percentage of GFP+
1,CCC[C@@H]1C[C@@H](C(=O)N[C@H](C(C)Cl)[C@H]2O[C@H](SC)[C@H](O)[C@@H](O)[C@H]2O)N(C)C1 (stereo partly specified) [Clindamycin HCl],inactive: 58% and inactive: 34.2%
2,Cc1c(OCC(F)(F)F)ccnc1CS(=O)c1nc2ccccc2[nH]1 (stereo unspecified) [Lansoprazole],inactive: 44.2%
3,CCO/C(O)=C1\C(COCCN)=NC(C)=C(C(=O)OC)C1c1ccccc1Cl (stereo unspecified) [Amlodipine],inactive: 37.5%
4,CO[C@@H](C(=O)N1Cc2[nH]nc(NC(=O)c3ccc(N4CCN(C)CC4)cc3)c2C1)c1ccccc1 [Danusertib],inactive: 39%
5,OC(CC1c2ccccc2-c2cncn21)C1CCCCC1 (stereo unspecified),inactive: 43%
6,C=CC(=O)Nc1cc2c(Nc3ccc(F)c(Cl)c3)ncnc2cc1OCCCN1CCOCC1,inactive: 42.3%
7,CS(=O)(=O)c1ccc(-c2cnc(N)c(C(=O)Nc3ccccc3)n2)cc1,inactive: 36.4%
8,COc1cc(C(=O)NC2CCCNC2)cc(OC)c1OC (stereo unspecified) [Troxipide],inactive: 47.9%
9,COc1cc2c(cc1OC)CN(CCc1ccc(NC(=O)c3cc(OC)c(OC)cc3NC(=O)c3cnc4ccccc4c3)cc1)CC2 [Tariquidar],inactive: 45.1%
10,CCCCCCCCCCCCCCCC(=O)OC[C@H](O)[C@H]1OC(O)=C(O)C1=O [L-Ascorbyl 6-palmitate],inactive: 47.7%
11,CCc1c(O)cc(O)c(C(=O)c2ccc(OCCN3CCOCC3)c(OC)c2)c1CC(=O)N(CCOC)CCOC,inactive: 48%
12,C[C@]12C=CC(=O)C=C1CC[C@@H]1[C@@H]2C(=O)C[C@@]2(C)[C@H]1CC[C@]2(O)C(=O)CO [Prednisone],inactive: 36.4%
13,COc1ccc(C(=O)CC(=O)c2ccc(C(C)(C)C)cc2)cc1 [Avobenzone],inactive: 43.5%
14,CN(C)CCOC(c1ccccc1)c1ccccc1 [Diphenhydramine],inactive: 47.9%
15,N=c1ccn2c(n1)O[C@H]1[C@H](O)[C@@H](CO)O[C@H]12 [Cyclocytidine HCl],inactive: 40.5%
16,Cn1c(=O)c2c(ncn2CC(O)CO)n(C)c1=O (stereo unspecified) [Dyphylline],inactive: 34.3%
17,"CCCCc1nc(Cl)c(CO)n1Cc1ccc(-c2ccccc2-c2nn[nH]n2)cc1 [Losartan, Losartan Potassium]",inactive: 44.4%
18,CO[C@H]1O[C@@H]2O[C@]3(C)CC[C@H]4[C@H](C)CC[C@@H]([C@H]1C)[C@@]24OO3 [Artemether],inactive: 39.1%
19,CN1C(C(=O)Nc2ccccn2)=C(O)c2ccccc2S1(=O)=O [Piroxicam],inactive: 44.9%
20,O=C(/C=C/c1ccc(CN(CCO)CCc2c[nH]c3ccccc23)cc1)NO [Dacinostat],active: 4.88%
21,"CCN(CC)CCOC(=O)c1ccc(N)cc1 [Procaine, Novocain]",inactive: 44.3%
22,CCCCCCCCCCCCCCCC(=O)OC1C(SC)OC(C(NC(=O)C2CC(CCC)CN2C)C(C)Cl)C(O)C1O (stereo unspecified) [Clindamycin palmitate HCl],inactive: 45.8%
